Assay results taken from PubChem BioAssay AID686971 (National Center for Advancing Translational Sciences (NCATS), 2013).
Out of some 360,000 compounds screened, about 7,500 (2.1%) were called active. This list was built around the results that the source calls inconclusive (neither active nor inactive); the mix of calls is not that of the screen. Calls come from the whole dose curve; as a rule, active = well fitted cell-killing curve with a large enough effect; inconclusive = small, poorly fitted or top-dose-only effect, or effect the other way, or another doubt; inactive = no such curve, though single readings can be large or run the other way. Potencies of inconclusive entries are left out as doubtful fits.

Assay: qHTS for induction of synthetic lethality in tumor cells producing 2HG: qHTS for the HT-1080-IDH1KD cell line;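 for activity, negative = toxicity: 0% = DMSO wells and -100% = cell-free medium wells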
Conditions: HT-1080 IDH1 knockdown viability, ATP luminescence, 48 h; activity, negative = toxicity: at 46.1 µM (top of the series) unless noted
Procedure, shortened: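 In this qHTS, HT-1080 cells depleted of IDH1 are exposed for 48 h at 37 °C to compound titrations. Toxicity is scored from CellTiter-Glo luminescence, with DMSO as full viability and medium alone as none.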
Potency is the fitted concentration of half-maximal effect; tags give direction and shape of the fitted curve.

| SMILES | Potency | activity, negative = toxicity |
| --- | --- | --- |
| O=C(c1n[nH]c(=O)c2ccccc12)N1CCN(S(=O)(=O)c2ccccc2Cl)CC1 | inactive | – |
| C=CCOc1ccc(/C=N/NC(=O)c2cc3c(OC)cc(OC)cc3[nH]2)cc1 | inconclusive [cytotoxic, single point] | – |
| CCOC(=O)CCC(=O)Nc1ccc(S(=O)(=O)N2CCCCC2)cc1 | inactive | – |
| CCCCCn1c(SCCC(C)C)nc2c1c(=O)[nH]c(=O)n2C | active: 20.6 µM | – |
| CCCCCC(=O)NN=C1CCN(Cc2ccccc2)CC1 | – | inconclusive: 19.2% |
| Cc1cc(C)c2[nH]c(=O)c(CN(Cc3cccs3)C(=S)NCc3ccco3)cc2c1 | inactive | – |
| CC(=O)OCC1OC(Sc2cccc3cccnc23)C(OC(C)=O)C(OC(C)=O)C1OC(C)=O (stereo unspecified) | inactive | – |
| CCCCn1c(N)c(N(CCC(C)C)C(=O)c2ccc(C)c(S(=O)(=O)N3CCOCC3)c2)c(=O)[nH]c1=O | inactive | – |
| C[C@]12c3[nH]c4ccc(Cl)cc4c3CCN1C(=O)[C@@H](CC(=O)NCc1ccco1)C[C@@H]2C(=O)N1CCCCC1 | inconclusive [cytotoxic, single point] | – |
| O=C(OCCN1C(=O)c2cccc3c(N4CCOCC4)ccc(c23)C1=O)c1ccc(Cl)cc1 | active: 2.31 µM | – |
| O=C(Nc1ccc(N2CCOCC2)c(Cl)c1)c1ccco1 | inactive | – |
| O=C(NCc1ccccc1)c1cc(-c2ccncc2)nc2ccccc12 | inactive | – |
| CCCN1CNC(=S)N(c2cc(C)ccc2C)C1 | inactive | – |
| COC(=O)CC1(C(=O)OC)Oc2ccc(Br)cc2C(=O)N1c1ccc(Br)cc1Cl (stereo unspecified) | active: 14.6 µM | – |
| Cc1ccc(C(=O)c2ccccc2C(=O)OCC(=O)NC(=O)NC(C)(C)C)cc1 | inactive | – |
| CCN(CC)c1nc(Nc2ccccc2)nc(Oc2ccc(=O)n(C)n2)n1 | inactive | – |
| COc1ccccc1CNc1nc(NCc2ccccc2)nc2ccsc12 | active: 18.4 µM | – |
| COc1cc(CN2CC(=O)N(c3ccc(C)c(Cl)c3)C2=S)cc(OC)c1OC | inactive | – |
| COc1ccc(C(=O)O)cc1N1C(=O)Nc2ccccc2N1O | inactive | – |
| c1ccc(C[C@H]2CN=C(Nc3ccccc3)N2CCCC2CCCC2)cc1 | inconclusive [cytotoxic, single point] | – |
| c1ccc(-c2csc(Nc3ncccn3)n2)cc1 | inactive | – |
| COc1ccc(OCC(=O)O/N=C(\N)Cc2ccc(Cl)cc2)cc1 | inactive | – |
| Cc1ccc(Cn2nnc3c(=O)[nH]c(C4CCN(S(=O)(=O)Cc5ccccc5)CC4)nc32)cc1 | inconclusive [cytotoxic, single point] | – |
| COc1ccc(CN(C(=O)c2ccc(-c3ccccc3)[nH]2)C(C(=O)NC(C)(C)C)c2ccncc2)cc1 (stereo unspecified) | active: 14.6 µM | – |

| SMILES | Potency | activity, negative = toxicity |
| --- | --- | --- |
| NNC(=O)c1csc(Cc2c(Cl)sc3ccc(Cl)cc23)n1 | inactive | – |
| O=C(N/N=C/c1cc([N+](=O)[O-])ccc1O)C1CC1 | inconclusive [cytotoxic, partial curve] | – |
| C#CCOCCOCCOCCNc1nc(N2CCN(C(=O)CCCCCCCCCCNC(=O)Cn3cc(C[C@@H](C)O)nn3)CC2)nc(N2CCN(C(=O)CCCCCCCCCCNC(=O)[C@H](CO)n3cc(CCCSC)nn3)CC2)n1 | inconclusive [cytotoxic, single point] | – |
| COc1ccc2nc(N(CCN(C)C)C(=O)/C=C/c3cccs3)sc2c1 | inconclusive [cytotoxic, single point] | – |
| NC(c1csc(Nc2ccccn2)n1)C1CCCCC1 (stereo unspecified) | inconclusive [cytotoxic, partial curve] | – |
| O=C(Nc1ccccc1Cl)c1cc(C2CCCCN2C(=O)CCc2ccccc2)on1 (stereo unspecified) | inactive | – |
| Cc1ccccc1C(=O)Nc1ccc(C(=O)N/N=C/c2ccc(O)cc2)cc1 | inconclusive [cytotoxic, partial curve, poor fit] | – |
| O=C(Cc1ccc(Cl)cc1Cl)NCC1(N2CCOCC2)CCCCC1 | inactive | – |
| O=C1C2C3C=CC(C3)C2C(=O)N1c1cccnc1 (stereo unspecified) | inactive | – |
| C=CCc1c(C)nc(-c2ccccc2)nc1N/N=C/c1ccncc1 | inconclusive [cytotoxic, single point] | – |
| COc1ccc(-c2csc(NC(=O)C3CCN(c4ncnc5sc(C)c(C)c45)CC3)n2)cc1OC | inconclusive [cytotoxic, partial curve] | – |
| CN(C)CC/C=C1\c2ccc(F)cc2Sc2cc(F)c(Cl)cc21 | inconclusive [cytotoxic, single point] | – |
| CCCCNC(=O)C1(C)CCCCN1C(=O)c1cc(-c2ccccc2)cs1 (stereo unspecified) | inconclusive [cytotoxic, single point] | – |
| C[C@@H](c1ccccc1)N1C[C@H](COCc2ccccc2)Oc2cc(N3CC[C@H](O)C3)ccc2S1(=O)=O | inconclusive [cytotoxic, partial curve] | – |
| CCc1cccc2c(C(=O)COC(=O)[C@@H]3CC(O)CN3S(=O)(=O)c3ccccc3[N+](=O)[O-])c[nH]c12 (stereo partly specified) | inconclusive [cytotoxic, partial curve] | – |
| S=C(NCC1CCCO1)N1CCN(c2ccc(Cl)c(Cl)c2)CC1 (stereo unspecified) | inconclusive [cytotoxic, partial curve] | – |
| CC(=O)Nc1ccc(C(=O)N/N=C/c2cc(Br)cc(Br)c2O)cc1 | inconclusive [cytotoxic, full curve] | – |
| COc1cc(NS(C)(=O)=O)ccc1Nc1c2ccccc2nc2ccccc12 | active: 16.4 µM | – |
| COc1ccc2[nH]cc(CCNC(=O)c3ccc4ccccc4n3)c2c1 | inconclusive [cytotoxic, single point] | – |
| CS(=O)(=O)Nc1ccc(C2=NN(C(=O)C3CCCCC3)C(c3cccs3)C2)cc1 (stereo unspecified) | inconclusive [cytotoxic, single point] | – |
| CC(CN1CCN(C)CC1)OC(=O)c1ccc(F)cc1 (stereo unspecified) | inactive | – |
| CC1(Cc2ccccc2C#N)C(=O)Nc2cc(-c3ccccc3Cl)ccc21 (stereo unspecified) | inconclusive [cytotoxic, single point] | – |
| O=C(Cn1cc(COc2cc(F)cc(F)c2)nn1)c1ccc(O)cc1 | inconclusive [cytotoxic, single point] | – |
| S=c1[nH]nc(-c2cc(-c3ccccc3)n[nH]2)n1/N=C/c1c2ccccc2cc2ccccc12 | inconclusive [cytotoxic, single point] | – |

| SMILES | Potency | activity, negative = toxicity |
| --- | --- | --- |
| Brc1ccc2nc(-c3ccco3)c(CC3CCCCC3)n2c1 | inconclusive [cytotoxic, single point] | – |
| COc1ccc(N(C(=O)c2snc(C(N)=O)c2N)C(C(=O)NCc2ccccc2)c2ccc(F)cc2)c(OC)c1 (stereo unspecified) | inconclusive [cytotoxic, partial curve] | – |
| CC1(Cc2ccc(S(C)(=O)=O)cc2)C(=O)Nc2ccc(Cl)cc21 (stereo unspecified) | inactive | – |
| CCN(CC(=O)Nc1cc(Cl)ccc1C)C(=O)COc1cccc2c1OC(C)(C)C2 | inactive | – |
| CC(C)(C)NCC(O)COc1c(F)cc(Br)cc1F (stereo unspecified) | inactive | – |
| Cc1cc(C(=O)Nn2c(-c3ccc(Br)cc3)nc3ccccc3c2=O)ccc1[N+](=O)[O-] | – | inconclusive: -34.4% [cytotoxic] |
| Cc1cc(C)c(OCCCCN2CCC(C)CC2)c(Br)c1 | inconclusive [cytotoxic, single point] | – |
| CN(C(=O)CSc1nc(C2CC2)nc2ccccc12)c1nc(-c2ccccc2)cs1 | inconclusive [cytotoxic, single point] | – |
| O=C(/C=C/c1ccco1)Nc1ccc(Cl)c(S(=O)(=O)N2CCOCC2)c1 | inconclusive [cytotoxic, partial curve] | – |
| COCCNc1nc(NCCOc2ccccc2Cl)c2sccc2n1 | inconclusive [cytotoxic, partial curve, poor fit] | – |
| O=C(O)c1ccc(S(=O)(=O)/N=C2\C=C(Nc3ccccc3F)C(=O)c3ccccc32)cc1 | active: 8.2 µM | – |
| Cc1ccc(-n2[nH]c(C)c(C=Nc3ccc4[nH]c(=O)[nH]c4c3)c2=O)cc1C | active: 23.1 µM | – |
| N#CC(C#N)=C1C=CC=CN1/C(=C\c1ccco1)C(=O)c1ccc(-c2ccccc2)cc1 | inconclusive [cytotoxic, full curve] | – |
| CC(Sc1nc(-c2ccc(F)cc2)cs1)C(=O)N1c2ccccc2CC1C (stereo unspecified) | inconclusive [cytotoxic, single point] | – |
| CCN(CC)c1ccc(N=Cc2c(C)[nH]c3ccccc23)cc1 | inconclusive [cytotoxic, single point] | – |
| Cc1ccccc1NC1=NCC(c2ccc([N+](=O)[O-])cc2)S1 (stereo unspecified) | inconclusive [cytotoxic, partial curve] | – |
| CC(=O)Nc1ccc(-c2ccnc3c2CC(C(=O)NCC2CC2)O3)cc1 (stereo unspecified) | active: 16.4 µM | – |
| Cc1ccc(S(=O)(=O)NC(=O)C2(C)CCN2C(=O)c2cccc(F)c2)cc1 (stereo unspecified) | inactive | – |
| CCNc1ccc(C(=O)NN=C2CCCC2)cc1[N+](=O)[O-] | inconclusive [cytotoxic, single point] | – |
| COc1cccc(/C=N/NC(=O)CSc2ccccc2C)c1O | active: 25.9 µM | – |
| COC(=O)[C@]1(Sc2ccc(OC)cc2)CC(=O)N[C@@H]1c1ccccc1 | inactive | – |
| CC(=O)c1c(C)[nH]c(C(=O)OCC(=O)NCCC(C)C)c1C | – | inconclusive: -31.4% [cytotoxic] |
| Cc1onc(C(=O)Nc2ccc3c(c2)OCO3)c1[N+](=O)[O-] | inconclusive [cytotoxic, single point] | – |
